# Experimental data as given in ChEMBL document CHEMBL4888484, “Replenishing the malaria drug discovery pipeline: Screening and hit evaluation of the MMV Hit Generation Library 1 (HGL1) against asexual blood stage Plasmodium falciparum ,using a nano luciferase reporter read-out” (2022).
# Screen size: about 150,000 compounds; about 540 (0.36%) showed an effect of 50% or more. Some of the results follow.
# System: Plasmodium falciparum
# Assay: Primary screen in NF54 nanoGlo assay, in single point, at 2uM, 72h; a lower Z score goes with more inhibition
# Assay type: functional, Erythrocyte
# Conditions: timepoint 72 hour
Compound,% Inhibition,Z score
O=C(Nc1cnc2c(c1)COCC2)c1cccc(OC(F)F)c1,-1%,0.19
O=C1CCc2cc(NC(=O)C3CCCCC3)ccc2N1,15%,-2.78
NC[C@H]1CCN(C(=O)c2cc(F)ccc2-c2cccc(C(F)(F)F)c2)C1,-6%,0.89
COC(=O)c1ccc(N)c(OC(F)(F)F)c1,3%,-0.36
C1=CC2(CCNCC2)Oc2cc(OCc3ccccc3)ccc21,-5%,0.65
Cn1c(=S)sc2c(N3CCCCCC3)ncnc21,-14%,1.67
CS(=O)(=O)NC[C@](O)(c1ccsc1)c1cccs1,-2%,0.35
C[C@H](NC(=O)N1CCOCC1)c1ccc2c(c1)OCCO2,-2%,0.4
Cc1ccc(NC(=O)Cn2cnc3c(-c4ccccc4)nsc3c2=O)cc1Cl,-7%,1.18
O=C(c1c(F)cccc1F)N1CCc2nc(N3CCCCC3)nc(Oc3ccccc3F)c2C1,-4%,0.43
CC(=O)O[C@@H](C)C(=O)N1CCC(n2nc(C(C)C)cc2C(C)C)CC1,-7%,1.35
COc1cc(NCc2cc3c(nc2OC)CN(C2CCCC2)C3=O)ncn1,-11%,1.4
O=C(CCCC(O)c1ccccc1)NCC1CCCOC1 (stereo not drawn),-6%,1.13
NC(=O)NCC(=O)Nc1cccc(Br)c1,-13%,2.07
Cc1cc([C@@H]2CCCCN2C(=O)CN2C(=O)CNC2=O)no1,-4%,0.81
O=C(c1cc(S(=O)(=O)N2CCCC2)cs1)N1CCCc2ccccc21,-14%,1.64
CCn1c(=O)c(N2CCC(NC(=O)NC3CCCCC3)CC2)nc2cccnc21,-11%,1.31
Cc1cnccc1C(=O)N[C@@H](C)c1nnc(N)s1,15%,-1.67
COc1ccccc1N1CCN(C(=O)c2ccc(NS(=O)(=O)c3ccc(C)c(C)c3)cc2)CC1,-7%,0.77
O=C(O)CC1(CC(=O)N2CC[C@H]3COC(=O)N3c3cc(F)ccc3C2)CCCC1,10%,-1.17
CCCOc1cc(N2CCC(O)CC2)ccc1NCCOc1ccc(F)cc1,5%,-0.83
CCCCC(=O)N(CC(=O)N(Cc1ccccc1)Cc1ccc(C)o1)C(C)(C)C,-12%,1.89
Cc1noc(C)c1S(=O)(=O)NCC(c1ccco1)c1ccco1,-26%,3.82
O=C(c1cc(F)cc(F)c1)N1CCC([C@]2(c3cccnc3)NC(=O)N(Cc3ccsc3)C2=O)CC1,7%,-0.85
